Measured values from the supplement of paper PMC3334620.
In all, about 33,000 sequences were measured (“E-score (-0.5 to 0.5)”: median about -0.017, highest 2% from about 0.3 on). The list shows a part of the results.

Biological target: T1, Sut1 (UniProt P53032)
T1 sequence: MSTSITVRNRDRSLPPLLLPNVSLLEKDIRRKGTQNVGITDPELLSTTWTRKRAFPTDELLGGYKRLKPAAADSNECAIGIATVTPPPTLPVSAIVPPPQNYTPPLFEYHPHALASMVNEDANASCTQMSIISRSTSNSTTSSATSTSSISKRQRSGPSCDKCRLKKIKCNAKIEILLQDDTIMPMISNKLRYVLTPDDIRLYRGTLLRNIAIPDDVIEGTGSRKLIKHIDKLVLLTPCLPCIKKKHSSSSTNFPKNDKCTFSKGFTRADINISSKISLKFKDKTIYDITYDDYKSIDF
Test: PBM E-score (8-mer binding enrichment) (E-score (-0.5 to 0.5)); higher = stronger / more preferred TF binding; most listed sequences are background and not binding sites
Conditions: protein concentration: 200 nM; construct: GST-full length
Procedure, shortened: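 E-scores (a modified Wilcoxon-Mann-Whitney statistic) were assigned by the Universal PBM Analysis Suite to every ungapped eight-base word pooled with its reverse complement. The input came from universal all-10-mer Agilent arrays made double-stranded by primer extension and probed with GST-tagged yeast transcription factors at about 100-200 nM. Fluorescent anti-GST detected bound protein, and masliner normalised the scans.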

In order of rising “PBM E-score” value:
1. AGGGCGAG  -0.332
2. CATTGCCC  -0.303
3. ACAGGGGC  -0.3
4. GCGTCACC  -0.296
5. ATTGGCCC  -0.289
6. GGCCCCCC  -0.289
7. CAGGCCCA  -0.282
8. CTGGACCC  -0.279
9. AGAGGCCC  -0.265
10. GGGGTCCA  -0.262
11. GATGTAGC  -0.249
12. ACGCTACC  -0.248
13. CCTGCGCA  -0.242
14. AAGGTCCT  -0.239
15. AGCGGGGC  -0.235
16. CGACCACC  -0.234
17. ACGAGGGC  -0.233
18. AAGGGGAA  -0.226
19. GCCAACCC  -0.214
20. AGTCAGTG  -0.213
21. CGATACCC  -0.211
22. CTGCGGCC  -0.21
23. CGGGCGCA  -0.206
24. ACTGGTCG  -0.199
25. GGCGTGGA  -0.197
26. GTGACCCA  -0.197
27. CAGGAGGC  -0.193
28. AACCTTCC  -0.189
29. AGCTAGGA  -0.186
30. CGTCTCGC  -0.184
31. AAGGCCTG  -0.183
32. AATCTAGC  -0.181
33. GCCATCGA  -0.177
34. GATCGCAC  -0.176
35. AGCGATTC  -0.166
36. CTACCACC  -0.163
37. ATCAGACC  -0.163
38. AGAACCCG  -0.162
39. CGTGTGAG  -0.161
40. ATTAGCTG  -0.16
41. CCCTGATA  -0.16
42. GTCTCGCA  -0.159
43. CTCTTCTC  -0.159
44. GCACCCAC  -0.155
45. CTCCTCTA  -0.154
46. CGTCGATA  -0.153
47. AAAGGCTC  -0.153
48. CACAGACC  -0.148
49. CGGCAAAA  -0.145
50. AAAGCTAC  -0.144
51. CACCAGCG  -0.144
52. GCATCAGC  -0.144
53. CCACCACC  -0.143
54. ATCGGGTA  -0.141
55. AGGAATCC  -0.138
56. ATAAGCGG  -0.134
57. CACCAACG  -0.128
58. AGCGAATG  -0.127
59. CAAGCAGG  -0.127
60. AAGACAGT  -0.125
61. CCGTCCTA  -0.121
62. CTTCTACC  -0.116
63. CGGTCGTA  -0.114
64. TCGTCTCA  -0.112
65. AATGAGCT  -0.107
66. AGCAGCCT  -0.104
67. AGACAGGC  -0.1
68. CCTTACGA  -0.0994
69. TACATCGA  -0.0994
70. CCCAGGCG  -0.0984
71. CGTGCACG  -0.0955
72. CCTCCGCG  -0.0947
73. CAGTGGTA  -0.0944
74. CGCTAGAC  -0.0914
75. CAAGGTAG  -0.0887
76. AATCTGGG  -0.0872
77. CATCGACC  -0.0867
78. ACACGGGG  -0.0866
79. CTGCTACC  -0.0857
80. CTTTCGCA  -0.0837
81. CCAGTTCG  -0.0833
82. AATGAGAG  -0.0825
83. CAGTGACG  -0.0793
84. ACGATCTA  -0.0789
85. CACATAGA  -0.0784
86. CCCCCGCG  -0.0782
87. GAAGAGTC  -0.0764
88. ACGAGGCA  -0.0734
89. CACTCTCA  -0.0711
90. AGGAAACC  -0.071
91. CCATAAGA  -0.0704
92. CAGTAAAG  -0.0703
93. GAAGTACC  -0.0675
94. GCACGTTA  -0.0635
95. GCCTCATA  -0.0633
96. ACGCTGAC  -0.0605
97. AGTGAACG  -0.0586
98. AAACATGC  -0.0558
99. ATCGTGAC  -0.0551
100. CTCATGAG  -0.0517
101. GGTAGTGA  -0.0509
102. ACTTGCTC  -0.0493
103. TAGCATCA  -0.0462
104. CAGAAACG  -0.0454
105. ACGGATGG  -0.0438
106. AACACTGT  -0.0434
107. AACGTTTC  -0.0394
108. CACGAGGC  -0.0389
109. GAGGTTAA  -0.0384
110. GACAGCAA  -0.0376
111. ACGCGTTG  -0.0307
112. CTTGCCCA  -0.0298
113. GCCTAAAA  -0.026
114. CTGCGGGC  -0.0258
115. GAACTAGC  -0.0235
116. AGACCGTC  -0.0226
117. GCTTCAGA  -0.0195
118. ATCGAAAC  -0.0162
119. GCTTAGTA  -0.0147
120. ATCTACTG  -0.0146
121. ACTCAAGC  -0.0122
122. ACAGCTAT  -0.0114
123. CATTCACA  -0.00905
124. CAGTCGTA  -0.00825
125. ATCGCAAC  -0.00091
126. ATTCTCGA  0.00271
127. AATCGAGT  0.00417
128. ACCGACGT  0.0086
129. CAGCAAAA  0.0136
130. AGTGTTCG  0.0213
131. CAGTTGGA  0.0236
132. ACATAGGC  0.0255
133. CCATAGTA  0.0275
134. ACCATACG  0.0284
135. ACGGCACT  0.03
136. ATAGCCAC  0.0314
137. ATCCGCGG  0.032
138. TCTCACAA  0.0336
139. AGTAACGC  0.0355
140. AGTAGAAG  0.0396
141. GATGTTTA  0.04
142. AGATGTGA  0.0417
143. GCATTCGA  0.0434
144. AAAGTACC  0.044
145. AACAGACT  0.0447
146. CGCAGAAA  0.0491
147. CCGATGTA  0.0524
148. GACTATCA  0.0525
149. AATATCAG  0.0528
150. CTGATTCA  0.0533
151. CATGTTTA  0.0536
152. CTTCGGTC  0.0562
153. GTACCAAC  0.0575
154. TCATAACA  0.0613
155. AGCAACTC  0.065
156. ACGGCCAA  0.0686
157. GGTTTACA  0.0694
158. AATATGCA  0.0736
159. AGTAATCC  0.0763
160. ACTCCTTG  0.0763
161. ACAACACC  0.0788
162. GCTGTTAA  0.0929
163. ATACACGA  0.094
164. CCCCGAAC  0.0945
165. GCAAAAGC  0.0946
166. CTCTTACC  0.0992
167. TCCCAAAA  0.108
168. CATTAAAG  0.111
169. ATCTCTAA  0.114
170. ACAGATCA  0.115
171. CTGAAATA  0.121
172. CATACATA  0.121
173. GTTCGCAA  0.124
174. AAATACGA  0.127
175. AATCGGGT  0.132
176. AACTAAAC  0.139
177. GATGAAAC  0.14
178. CTTACGCC  0.143
179. ATACTACA  0.147
180. GGACGACA  0.149
181. AATAACGA  0.15
182. ATCGAAAA  0.152
183. AAAACTCA  0.155
184. ATCAAAAC  0.156
185. GGAAGTCC  0.159
186. GAAATAGA  0.164
187. AATCTGAA  0.165
188. CGGTAAAG  0.167
189. CCGTAAAA  0.169
190. GGGTAAAA  0.173
191. ATCCAAAA  0.178
192. TATGAAGA  0.178
193. GCATTTTA  0.191
194. TAATTACA  0.193
195. GACGGAAA  0.194
196. AAATTTCG  0.196
197. ACCATAAT  0.198
198. AAAGTTTA  0.203
199. ATCTAAAT  0.207
200. TATAGAAA  0.217
201. AAAGACAA  0.223
202. ACCTCTTA  0.236
203. CTTAAAAC  0.238
204. ATAATAGA  0.244
205. ACTATAGT  0.254
206. GAATGATA  0.259
207. ATGTTAAA  0.263
208. CAATTACC  0.264
209. AAGCAATT  0.264
210. AACTTAAA  0.266
211. CCGCGGAC  0.274
212. AATTGAAT  0.314
213. CTCCGTTC  0.32
214. ATTTTATC  0.321
215. ATTTATCC  0.33
216. GAAATTAA  0.333
217. TAAAATTA  0.34
218. CGCCGGCG  0.375
219. CGCCGGAG  0.391
